These results are taken from patent publication US20230192883A1 (LEGEND BIOTECH USA, published 2023).

The term EC50 (read off the curve) denotes the concentration giving half of the maximal effect.

This assay deals with T1, human CD19 on cells (Raji, Daudi, Nalm.6, K562-CD19) (human, UniProt P15391 20-556).
T1 construct: whole, on cells; also called CD19 receptor; CD19 positive cells
T1 sequence (looked up): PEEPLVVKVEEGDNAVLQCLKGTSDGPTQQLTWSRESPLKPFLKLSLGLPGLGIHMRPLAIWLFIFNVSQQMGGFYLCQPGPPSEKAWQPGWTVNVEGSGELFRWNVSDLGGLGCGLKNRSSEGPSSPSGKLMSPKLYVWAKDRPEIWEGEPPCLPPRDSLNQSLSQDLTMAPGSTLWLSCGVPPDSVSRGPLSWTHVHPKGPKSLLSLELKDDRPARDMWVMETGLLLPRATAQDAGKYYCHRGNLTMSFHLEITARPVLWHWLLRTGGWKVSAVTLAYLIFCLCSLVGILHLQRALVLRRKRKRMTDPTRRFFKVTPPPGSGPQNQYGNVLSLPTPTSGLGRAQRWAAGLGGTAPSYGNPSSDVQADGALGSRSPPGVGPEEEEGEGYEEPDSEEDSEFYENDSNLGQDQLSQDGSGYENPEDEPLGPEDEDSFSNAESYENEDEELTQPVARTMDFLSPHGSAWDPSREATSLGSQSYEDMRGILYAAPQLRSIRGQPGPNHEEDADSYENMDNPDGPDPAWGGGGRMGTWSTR
Briefly: flow cytometry on Raji cells (CD19 positive), detection with PE anti-human IgG1 Fc. (In general: Flow cytometry measures light scatter and fluorescence of single cells or particles in a stream.)

Numbering of substitutions follows the chain as printed.

B1: VHH-083-huIgG1Fc mAb (Fc fusion)
chain: QVQLVESGGGSVQAGGSLRLSCGASGNINSRNCMGWFRQAPGKEREGVAAIGQVTGRSYYVDSVKGRFTISLDNAKNTLYLQMNTLKPEDTAMYYCAAAPGCLLSALRSADYRNWGQGTQVTVSS[human IgG1 Fc left out]
notes: No linker between them is stated; also called anti-CD19 VHH-huIgG1Fc mAb; VHH-083-huIgGlFc mAb
Regarding B1, the “EC50 (read off the curve)” value was roughly 0.2 nM.

B2: VHH-131-huIgG1Fc mAb (Fc fusion)
chain: B1 chain with A50G, V61A, T78M
notes: No linker is stated; also called anti-CD19 VHH-huIgG1Fc mAb
With B2, the “EC50 (read off the curve)” value was roughly 0.2 nM.
